Reference: PubChem BioAssay AID743279 (National Center for Advancing Translational Sciences (NCATS), 2014)
About 17,000 (4.7%) of roughly 360,000 compounds were called active. The inconclusive results got no clear call from the source; some entries with a clear call stand among them for comparison. No stated cut-off is given here; in the data, active means activity change below about -50%; inconclusive means mostly about -30% to -49%; inactive means weaker than that.

Assay: qHTS for Inhibitors of Inflammasome Signaling: IL-1-beta AlphaLISA Primary Screen
Conditions: THP-1 LPS/ATP IL-1B secretion, 16 h; at 57.5 µM, active compounds read low
How it was run: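 Secreted IL-1B measured by AlphaLISA bead assay after 16 h compound exposure of THP-1 cells; compounds (final up to 57.5 uM) added 1 h before LPS (250 ng/mL) and ATP (1.25 mM) stimulation; lower signal means less secretion.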
On the % scale 0 is the no-effect control and ±100 the full control effect.

Activity change, inactive:
CCOC1=C2CN(S(=O)(=O)c3ccc(C)cc3)[C@H](c3ccc(CC)cc3)C[C@@H]2N(S(=O)(=O)c2ccc(C)cc2)[C@H](c2ccccc2)C1 20.4%, CCN(CC)C(=O)C1=C(C)N(Cc2ccccc2)C(=O)C(CC(=O)NCCc2ccccn2)C1 (centres undefined) 8.23%, O=C(O)c1cccc(N2C(=O)c3cc([N+](=O)[O-])cc4cc([N+](=O)[O-])cc(c34)C2=O)c1 -19.7%, Cc1cccc(-n2c(=O)[nH]c3c(C(N)=O)nc(C(C)C)nc32)c1 27%, CCCCN1C(=O)C(=O)NC[C@@H]1CCCCN -3.23%, COc1cccc(C(=O)N2CCCN(C)CC2)c1OC -6.36%, O=C(O)C1CCCC2CN3CCc4c([nH]c5ccccc45)C3C(O)C21 (centres undefined) 20.8%, CCSc1nnc(-c2c[nH]c3ccccc23)o1 -12.2%

Activity change, active:
CC1=C(CC[C@@H](C)CO)OC2CC3C4CCC5CC(O)CCC5(C)C4CC(=O)C3(C)C12 (some centres undefined) -66.2%, CC(=O)Nc1cccc(C(=O)/C=C/c2ccc(F)cc2)c1 -192%, Cc1ccc(-c2csc(N(CCCN3CCOCC3)C(=O)c3ccco3)n2)cc1 -53.3%, COC(=O)C1=C(C)N(Cc2ccccc2)C(=NCCc2ccccn2)N[C@H]1c1cccc(F)c1 -55.3%, O=C1c2cccc3c([N+](=O)[O-])ccc(c23)C(=O)N1c1ccccn1 -114%

Activity change, inconclusive:
COc1ncnc2c1ncn2CCCNC1CCN(Cc2ccccc2)CC1 -33.7%, COc1cc(SC)ccc1C(=O)Nc1ccncc1 -32.1%, COc1cccc(/C=C/C(=O)OCC(=O)N2CCCC2)c1OC -38.8%, CNC(=S)N/N=C(\C)c1ccc2c(c1)OCO2 -34.1%, O=Cc1cccc(OCc2cccc3ccccc23)c1 -30.2%, OC(c1cccc(Cl)c1)c1nc(-c2ccccc2)cs1 (centres undefined) -38.5%, Fc1cccc(Cl)c1CN1CCN(c2nc3ccccc3s2)CC1 -41%, Cc1ccc(CN2CCC(C(=O)c3ccc(F)cc3)CC2)cc1 -31.1%, CN(c1ccccc1)S(=O)(=O)c1cccc(NC(=O)CCNC(=O)c2ccc([N+](=O)[O-])cc2)c1 -30%, CCOc1ccc(S(=O)(=O)N(CCO)CCO)cc1-c1nc2c(C(C)(C)C)nn(C)c2c(=O)[nH]1 -32.5%, C=CCN(C(=O)Nc1ccc2c(c1)nc(C)n2C)c1ccccc1 -30.6%
